Measured values: PubChem BioAssay (NCI)
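Grown in 96-well plates, cells were treated for 48 hours with each compound at five concentrations. Insufficient inhibition: endpoint recorded as highest concentration tested. GI50 is the concentration that inhibits growth by half. At the TGI there is no net growth.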

Each compound was assayed on NCI-H322M lung (assay: inhibition of tumour cell growth, NCI panel, 48 h).
With `COc1ccc2c(c1)CC[C@@H]1C2CC[C@]2(C)C(=O)N(N)C(=O)CC12` (stereo not given in full) the TGI was greater than 100 µM.
`COc1ccc(-c2nnc(N3CCN(C(=O)CN4CCN(c5ccc(Cl)cc5)CC4)CC3)nc2-c2ccc(OC)cc2)cc1` gave a GI50 greater than 100 µM and a TGI greater than 100 µM.
Compound `O=[N+]([O-])C(=C(Nc1ccccc1)Nc1ccccc1)/C(Cl)=C(\Cl)Br` has a TGI of 29.3 µM.
For `COc1cc2cc(Oc3ccc(NC(=O)Nc4ccc(Cl)c(C(F)(F)F)c4)cc3)c(C)nc2cc1OC`, the GI50 was 2.05 µM and the TGI was 6.28 µM.
`COC(=O)C1N=CSCC1(C)O` (stereo not given) was tested, and the TGI was greater than 100 µM.
Work on `CC1CN=C(NS(=O)(=O)c2cc(C(=O)Nc3ccc(F)cc3)c(Cl)cc2S)NN1` (stereo not given) yielded a TGI greater than 100 µM.
`CCC1(N=[N+]=[N-])C(=O)c2ccccc2N(c2ccccc2)C1=O` (stereo not given) was tested, and the TGI was greater than 100 µM.
With `Cc1cc(C)cc(Nc2ccc([N+](=O)[O-])c(NCCN3CCOCC3)n2)c1` the TGI was greater than 100 µM.
Work on `CCc1c(O)c2c(c(O)c1C(C)=O)C(=O)c1c(cc(O)c(C(=O)O)c1C(=O)O)C2=O` yielded a TGI greater than 100 µM.
Work on `COc1cc(NCc2ccccc2O)c2ncccc2c1` yielded a GI50 of 20.9 µM and a TGI greater than 100 µM.
Compound `C/C1=C\C/C=C(\C)[C@H]2CC(CC/C(C)=C/CC1)[C@](C)(C=O)O2` has a GI50 greater than 100 µM and a TGI greater than 100 µM.
`NC(=S)N/N=c1\cc(C(=O)Nc2ccc([N+](=O)[O-])cc2[N+](=O)[O-])oc2ccccc12` was tested, and the TGI was greater than 100 µM.
With `CNC(=O)CNC(=O)C(Cc1ccc(NC(=O)CCCCC(C)=O)cc1)NC(=O)C(CCC(=O)OCc1ccccc1)NC(=O)OC(C)(C)C` (stereo not given) the TGI was greater than 100 µM.
For `CC1(C)N=C(C(=O)c2ccccc2)N(O)C1(O)c1ccccc1` (stereo not given), the TGI was greater than 100 µM.
In the case of `CC(=O)OC1CCC2(C)C(=CCC3C4CCC5(OC6CC(C)CN(C(C)=O)C6C5C)C(C)=C4C(=O)C32)C1` (stereo not given), the TGI is reported as 41 µM.
Compound `NCCP(=O)(O)O` has a TGI greater than 100 µM.
`O=C1CCCCCC1CC(Sc1ccccc1)Sc1ccccc1` (stereo not given) was tested, and the TGI was greater than 100 µM.
`Cc1cc(C)c2c(SCc3ccc(Cl)cc3Cl)nc(N)nc2n1` was tested, and the TGI was greater than 100 µM.
`CCOC(=O)N[C@H]1CCc2c(Br)c(OC)c(OC)c(OC)c2-c2ccc(SC)c(=O)cc21` was tested, and the GI50 was less than 0.0114 µM and the TGI was greater than 75.9 µM.
`CN1CCN(CCNc2ccc(CO)c3sc4ccccc4c(=O)c23)CC1` showed a TGI of 17.5 µM.
`CCO/C(O)=C(/C(=N)N1CCCC1)C(=O)Nc1ccc(F)cc1` gave a TGI greater than 100 µM.
Compound `COc1ccc(/C=C(/C)[N+](=O)[O-])cc1` has a TGI of 8.66 µM.
`COC(=O)/C(=C/c1ccc(OC)cc1)NC(=O)c1ccccc1` gave a TGI greater than 100 µM.
Work on `CC(C)c1cccc(C(=O)NCCN(C)C)c1[N+](=O)[O-]` yielded a TGI greater than 100 µM.
Compound `CCCSc1ccc2[nH]c(N3C(=O)/C(=C/c4cc(OC)c(OC)c(OC)c4)N=C3c3ccccc3)cc2c1` has a TGI greater than 37.5 µM.
In the case of `COc1ccc(Cl)cc1NC(=O)c1cccc([N+](=O)[O-])c1O`, the TGI is reported as greater than 82.6 µM.
`C[S+](C)CC(=O)c1ccc2c(c1)Sc1ccccc1O2` showed a TGI of 28.4 µM.
`O=S(=O)(NCCNc1cc(-c2cn(-c3ccccc3)nc2-c2cccc(O)c2)ccn1)c1ccc(Cl)cc1` gave a GI50 of 3.85 µM and a TGI of 29.6 µM.
`CN(/N=C\c1ccc2ccccc2c1)C1=NCCN1` gave a TGI of 49.5 µM.
`Cn1c2ccccc2n2c3ccccc3c(=O)c(C#N)c12` showed a TGI of 73.8 µM.
Compound `Nc1ccc(Oc2ccc(C34CC5CC(C3)CC(c3ccc(Oc6ccc(N)cc6)cc3)(C5)C4)cc2)cc1` has a TGI of 13 µM.
In the case of `COC1CC(CC2CCC(C)C(C(C)C(=O)O)O2)OC2(OC(C)(C3CCC(C)(C4OC(C5OC(O)(CO)C(C)CC5C)CC4C)O3)CC2C)C1C` (stereo not given), the TGI is reported as 23.8 µM.
`Nc1nc(NCC2(CO)CCC2)cc(=O)[nH]1` gave a TGI greater than 100 µM.
Work on `NC(=S)N/N=C\c1nccc2c(N)cccc12` yielded a GI50 of 0.328 µM.
Work on `COc1cc(Cl)c2c3c(c(C(=O)c4ccccc4)oc13)CCC2` yielded a TGI greater than 100 µM.
`COC(=O)CCc1cccnc1/C=N/O` showed a TGI greater than 100 µM.
`O=C1CCCCC(=O)Nc2ccccc2N1` was tested, and the TGI was greater than 100 µM.
In the case of `S=C1N=C(Cl)/C(=C\c2ccco2)N1`, the TGI is reported as greater than 100 µM.
`COC(=S)OC1CC(n2cnc3c(N)ncnc32)OC1CO[Si](C)(C)C(C)(C)C` (stereo not given) showed a TGI of 49.9 µM.
In the case of `CC1C=C[C@H](Sc2ccccc2)CC[C@@]1(C)O` (stereo not given in full), the TGI is reported as greater than 100 µM.
Work on `COc1cc(C)c(C)c(OC(=O)c2c(C)c(C)c(OC)c(C)c2OC)c1C` yielded a TGI greater than 100 µM.
`COC(=O)C1=C(O)CCCC(CCC(C)=O)=C1` showed a TGI greater than 100 µM.
In the case of `Cn1nc2ccc3nccc(N(CCO)CCO)c3c2n1`, the TGI is reported as greater than 100 µM.
In the case of `Cc1nc2ncn3c(c-2c1Cc1ccccc1)NC=C(O)N3`, the TGI is reported as greater than 100 µM.
`CN(C)CC1(Cc2ccccc2)CCC(Cc2ccccc2)C1=O` (stereo not given) gave a TGI of 31.4 µM.
With `CS(=O)(=O)CCn1c(=O)c(Oc2ccc(F)cc2F)cc2cnc(NC3CCOCC3)nc21` the GI50 was greater than 25 µM and the TGI was greater than 25 µM.
For `CNC(=O)OC1C(O[C@H]2C[C@H]3[C@@H]4CC=C5C[C@@H](O)CC[C@]5(C)[C@H]4CC[C@]3(C)[C@H]2[C@H](C)C(=O)CCC(C)C)OCC(O)C1OC1OCC(O)C(O)C1OC(=O)c1ccc(OC)cc1` (stereo not given in full), the GI50 was 1.78 µM and the TGI was 6.25 µM.
Compound `NC(=S)N1N=C(c2ccccc2O)CC1c1ccccc1` (stereo not given) has a TGI of 54.4 µM.
`CC(C)(C)[Si](C)(C)OCC1C=CC(n2cnc3c(N)ncnc32)O1` (stereo not given) gave a TGI greater than 100 µM.
With `COc1ccc(NS(=O)c2ccccc2OC)cc1` (stereo not given) the TGI was greater than 100 µM.
Compound `COC(OC)C1OC(CO)C(n2cc(F)c(=O)[nH]c2=O)C1O` (stereo not given) has a TGI greater than 100 µM.
`O=C(O)c1cscc1Cc1cccs1` was tested, and the TGI was greater than 100 µM.
